Results as given in the antibiotic and cytotoxicity screens of Wong et al. (2023).
The list shows a part of the results.

Test system: S. aureus RN4220
Test: growth inhibition call (relative growth <= 0.2)
Details: 50 µM

SMILES | growth inhibition call
C[C@@H]1CCCCO[C@H](CN(C)C(=O)Nc2cccc3ccccc23)[C@@H](C)CN([C@@H](C)CO)C(=O)c2cc(NC(=O)Nc3ccc(F)cc3)ccc2O1 | inactive
Cc1cccc(S(=O)(=O)N2C[C@@H](O)COC[C@H]3O[C@H](CC(=O)NCc4ccncn4)CC[C@@H]32)c1 | inactive
COc1ccc(NC(=O)Nc2ccc3c(c2)C(=O)N([C@@H](C)CO)C[C@@H](C)[C@@H](CN(C)S(=O)(=O)c2ccc(OC)cc2)OCCCC[C@@H](C)O3)cc1 | inactive
COc1ccccc1C#Cc1ccc2c(c1)O[C@@H](CN(C)Cc1ccncc1)[C@H](C)CN([C@H](C)CO)S2(=O)=O | inactive
CC(C)CC#Cc1ccc2c(c1)O[C@@H](CN(C)S(=O)(=O)c1cccc(F)c1)[C@H](C)CN([C@H](C)CO)S2(=O)=O | inactive
C[C@H](CO)N1C[C@H](C)[C@H](CN(C)S(=O)(=O)c2ccc(F)cc2)OCCCC[C@H](C)Oc2ccc(NS(C)(=O)=O)cc2C1=O | inactive
C=C(C)COc1ccc([N+](=O)[O-])cc1 | inactive
COc1ccc(Sc2ccc(N(C(=O)c3ccccc3Cl)C(=O)c3ccccc3Cl)cc2C#N)cc1 | inactive
C[C@@H]1CN([C@@H](C)CO)C(=O)c2cccc(NS(C)(=O)=O)c2O[C@@H]1CN(C)C(=O)Nc1ccc(C(F)(F)F)cc1 | active
O=C(C[C@@H]1C=C[C@@H](NC(=O)c2ccc3c(c2)OCO3)[C@H](CO)O1)NCc1ccc(Oc2ccccc2)cc1 | inactive
C[C@H]1CN([C@@H](C)CO)C(=O)c2cccc(NC(=O)CCCCCC(=O)Nc3ccccc3N)c2O[C@@H]1CN(C)Cc1ccc(Oc2ccccc2)cc1 | inactive
